Among all 50,000 compounds or so, about 800 (1.6%) showed an effect of 50% or more. The list shows a part of the results.
What follows are compounds tested against Bcl-2-like protein 10 (Homo sapiens) (UniProt Q9HD36) (assay: Phenotype converters, Bcl-B/TR3 peptide binding displacement, primary biochemical FP (AID 1240;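 note: 0% = Bcl-B with tracer peptide and DMSO and 100% = tracer peptide lacking Bcl-B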)). Conditions: GST-Bcl-B / FITC-TR3 peptide fluorescence polarization; stronger effect = higher value; compound at 3.75 mg/L.
Sequence of UniProt Q9HD36 (Q9HD36 whole entry, looked up): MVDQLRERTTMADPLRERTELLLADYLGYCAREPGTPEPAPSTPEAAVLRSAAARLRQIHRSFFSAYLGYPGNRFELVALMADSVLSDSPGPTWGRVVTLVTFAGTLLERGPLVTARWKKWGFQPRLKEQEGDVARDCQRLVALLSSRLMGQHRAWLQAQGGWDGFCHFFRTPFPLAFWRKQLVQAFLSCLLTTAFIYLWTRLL

Compound | displacement
O=C1c2ccc(-c3nc4ccccc4c(=O)o3)cc2C(=O)N1c1ccccc1[N+](=O)[O-] | 0.1%
CC(C)C(C#CC(O)(c1ccccc1)c1ccccc1)N(C)C (stereo unspecified) | 3.6%
CC(=O)NC(NC(C)=O)c1ccc(F)cc1 | -2.4%
O=S(=O)(Nc1cccnc1)c1ccc(F)cc1 | 11.4%
O=C1CCCC2=C1C(c1ccc3c(c1)OCO3)Nc1ccc3ccccc3c12 (stereo unspecified) | 9.5%
Cc1ccc2oc(C(=O)Nc3ccc(Cl)cc3Cl)c(C)c2c1 | -5.3%
N/C(=N\OC(=O)Cc1ccc(Cl)cc1)c1cccc([N+](=O)[O-])c1 | -1.7%
Cc1cc(C)nc(SCc2ccccc2Cl)n1 | 2%
O=C1C2=C(C(c3ccccc3)=NCCN2)C(c2ccc(O)cc2)N1c1ccccc1 (stereo unspecified) | 4.4%
CN(C)c1ccc(Nc2nc(-c3cccnc3)cs2)cc1 | 9.6%
Cc1ccc(N(Cc2ccc(C(=O)NCc3ccco3)cc2)S(C)(=O)=O)cc1C | -10.7%
CCOc1cc(/C=C2/SC(=S)NC2=O)ccc1OCc1ccc(Cl)c(Cl)c1 | 2.3%
CCOc1cc(/C=c2\sc3nc4ccccc4n3c2=O)ccc1OC(C)c1ccccc1 (stereo unspecified) | 37.5%
O=C(NCC1CCCO1)NC1CCCCC1 (stereo unspecified) | -2.5%
CCc1nnc(NC(=O)c2ccc3c(c2)OCCO3)s1 | 6.6%
CC1=C(C(=O)Nc2cc(Cl)ccc2C)C(c2ccccc2Cl)NC(=O)N1 (stereo unspecified) | 13.6%
COc1ccc(N(CC(=O)Nc2ccc(C)cc2)S(C)(=O)=O)cc1Cl | 5.1%
COc1ccc(/C=C/C(=O)Nc2ccccc2C(F)(F)F)cc1OC | -4.5%
COc1ccc(C2Nc3ccccc3C(=O)N2Cc2ccco2)cc1CSc1nc2ccccc2s1 (stereo unspecified) | 11.9%
COc1ccc(C2C(C#N)=C(N)OC3=C2C(=O)CCC3)cc1 (stereo unspecified) | 3%
COc1cccc(OC)c1C(=O)Nc1cc(C(F)(F)F)ccc1Cl | -4%
COc1ccc(C(=O)Nc2ccc(I)cc2Cl)cc1Cl | -7%
CC(Sc1nnc(N)s1)c1ccccc1 (stereo unspecified) | 5.2%

Compound | displacement
CCOc1cccc(C(=O)Nc2scc(-c3ccc(C)cc3)c2C(=O)OC)c1 | -5.1%
CN(Cc1ccccc1)C(=O)c1ccc2c(c1)OCCO2 | 8.7%
O=C(c1c(Cl)cccc1Cl)N1CCN(c2ccccc2)CC1 | 5.9%
CCOC(=O)c1c(NC(=O)c2ccc(OC)c(OC)c2)sc(C(=O)Nc2ccc(C)cc2C)c1C | -0.6%
COc1cccc(CN2CCN(C(=O)c3cc(OC)cc(OC)c3)CC2)c1 | 17.3%
O=C(CSCC(=O)Nc1ccccc1)NCC(=O)c1ccccc1 | -7.9%
O=C(Nc1cccc(C(F)(F)F)c1)c1ccc(Cl)cc1Cl | 10.8%
COc1cccc(OCCNC(=O)c2ccc(C)cc2)c1 | -15.4%
COc1ccccc1N1COc2ccc3ccccc3c2C1 | 11%
CCOC(=O)COc1ccc2oc(C)c(C(=O)OC(C)C)c2c1 | 8.9%
Cc1ccc(-n2nc3cc(C)c(NC(=O)c4cccc(Br)c4)cc3n2)cc1 | -0.8%
CCc1c(C)sc(NC(=O)c2ccc([N+](=O)[O-])cc2Cl)c1C(N)=O | 8.9%
COC(=O)C1=C(C)N=c2s/c(=C\c3ccc(-c4ccc(OC)cc4[N+](=O)[O-])o3)c(=O)n2C1c1ccccc1 (stereo unspecified) | 11%
O=C(NC1CCCCC1)c1ccc([N+](=O)[O-])cc1 | 0.7%
CCOc1cc(/C=C2\C(=O)NC(=O)N(c3cc(C)cc(C)c3)C2=O)cc(Cl)c1O | 11.4%
COc1ccc(/C=C/C(=O)NCC2COc3ccccc3O2)cc1OC (stereo unspecified) | -18.2%
Cc1cc(/C=C2/NC(=O)NC2=O)c(-c2ccccc2)n1-c1ccccc1 | -5.1%
O=C(Nc1ccccc1C(=O)N1CCOCC1)c1ccccc1F | 5.5%
CCCCCCCCc1nnc(NC(C)=O)s1 | -12.2%
CSC1=NC(C)(C)CC12C=CC(=O)C=C2 | 16.9%
CC(=O)c1cccc(NC(=O)Cc2cccs2)c1 | 15.1%
COc1cc(/C=N/NC(=O)COc2cccc(C)c2)cc([N+](=O)[O-])c1O | 4.4%
Cc1cc(C)n(C(=O)CNC(=O)c2ccc(F)cc2)n1 | 7%

Compound | displacement
CCOc1ccc(N2C(=O)NC(=O)/C(=C/c3cccc4ccccc34)C2=O)cc1 | 1.4%
Cc1ccccc1NC(=O)c1ccc2ccccc2n1 | -3.8%
CC(=O)NC(NC(=S)Nc1ccc(C(C)=O)cc1)C(Cl)(Cl)Cl (stereo unspecified) | -2%
COc1cc(/C=C2/SC(=S)N(C)C2=O)ccc1OCCOc1cc(C)ccc1C(C)C | 0.8%
O=C(Nc1ccc(Cc2ccncc2)cc1)c1ccc(-c2ccc(Br)cc2)o1 | 109%
COc1ccccc1N1C(=O)S/C(=C\c2ccccc2Cl)C1=O | -1.5%
COc1ccc(CCNC(=O)C(=O)Nc2ccccc2C)cc1OC | 12.3%
O=C(COC(=O)c1ccccc1[N+](=O)[O-])c1ccc(F)cc1 | 6.8%
O=C(Nc1ccc(Cl)cc1)C1CC(=O)N(c2ccccc2)C1 (stereo unspecified) | 8%
CC(C)(C)OC(=O)N1CC(O)CC1C(=O)OCC(=O)c1ccccc1 (stereo unspecified) | -10.6%
O=C1N=c2ccc(Cl)cc2=C1c1sc(=S)n(Cc2ccco2)c1O | 41.9%
O=C1NN(c2ccc(I)cc2)C(=O)/C1=C\c1ccc(F)cc1 | -1.7%
NC(=O)c1c(NC(=O)COc2ccc(Cl)cc2)sc2c1CCCC2 | 3.8%
Cc1cccc(C)c1NC(=O)COc1ccccc1O | 2.1%
O=C(O)c1ccc2c(c1)C(=O)N(c1ccc(Cl)c([N+](=O)[O-])c1)C2=O | 9.8%
COCCNC(=O)c1ccc(OC)c(OC)c1 | 8.6%
c1ccc(CN2CCN(Cc3c[nH]c4ccccc34)CC2)cc1 | -8.5%
CC(=O)NNc1nc(-c2ccccc2)c2cc(Br)ccc2n1 | -11.7%
COc1ccccc1NC(=O)c1c(NC(=O)c2cccc(C)c2)sc2c1CCCC2 | -13.9%
C=C(C)c1cccc(C(C)(C)NC(=O)Nc2ccc(C(=O)N3CCOCC3)cc2)c1 | 2.1%
CCOC(=O)c1ccc2nc(C)c(C/C=C(/C)Cl)c(Cl)c2c1 | 2.2%
COc1ccc(COCC(O)CN2CC(C)OC(C)C2)cc1OC (stereo unspecified) | 4%
Cc1ccc(C(C)C)c(OCCNC(=O)CCc2ccccc2)c1 | 9.9%

Compound | displacement
Cc1ccc(C(=O)Nc2sc3c(c2C(=O)N2CCC(C)CC2)CCCC3)cc1 | -8.7%
COc1cc(CN2CCN(C3CC4CCC3C4)CC2)cc(OC)c1OC (stereo unspecified) | -13.9%
O=C(COc1ccc(Cl)cc1Cl)Nc1cccc(NC(=O)c2ccco2)c1 | -1%
CC1(C)CCCC2=C1CC1C(=O)NC(=O)C1C2 (stereo unspecified) | -12.7%
O=C(c1ccc(C#Cc2ccccc2)cc1)N1CCN(C/C=C/c2ccccc2)CC1 | 3.8%
COC(C)(C)CNS(=O)(=O)c1ccc(C)cc1 | 13.2%
CCC(CO)N1CC2([N+](=O)[O-])C=CCC([N+](=O)[O-])(C1)C2 (stereo unspecified) | -6.5%
COc1ccc(/C=C2/C(=O)N(c3cccc(Br)c3)N=C2C)c(OC)c1 | 7.1%
CCc1cccc(CC)c1NC(=O)c1cc(Cl)ccc1[N+](=O)[O-] | -1.3%
COc1ccc(NC(=O)/C(C#N)=C/c2cccc(O)c2)cc1 | -6.7%
O=C(Nc1ccc(S(=O)(=O)N2CCCC2)cc1)c1ccc([N+](=O)[O-])cc1 | 8.8%
Cc1ccc(C(=O)Nc2ccccc2CO)cc1 | -17.7%
O=C(NC(=S)Nc1ccc2ccccc2c1)c1ccco1 | 15.5%
CC(=O)N1C(=O)/C(=C2\C=C(c3ccccc3)OC2=O)c2ccccc21 | 5.1%
O=C(Nc1ccccc1)C(=Cc1ccccc1F)NC(=O)c1ccccc1 | 5.2%
COc1ccc(C2=C/C(=C/c3ccc(Cl)cc3)C(=O)O2)cc1 | -4.1%
C/C(=N\N=C(/N)SC1CC(=O)N(c2ccc(C(=O)O)cc2)C1=O)c1ccc(C)cc1 (stereo unspecified) | -6%
Cc1cccc(NC(=O)CC2CCCCC2)c1 | 2%
CCOc1cc(/C=C2/C(=O)NC(=O)N(c3ccc(OC)cc3)C2=O)ccc1OCCOc1ccc([N+](=O)[O-])cc1 | -0.9%
Cc1ccc(/C=N/NC(=O)C(C)O)cc1 (stereo unspecified) | 7.6%
COc1ccc(C(=O)N/C(=C\c2ccc(-c3cccc([N+](=O)[O-])c3)o2)C(=O)NCc2cccnc2)cc1 | 6.8%
O=C(O)c1cc(-c2ccc(/C=N/Nc3ccc(Cl)cc3)o2)ccc1Cl | 10.7%
Cc1ccc(C#CC(CC(=O)c2ccccc2)CC(=O)c2ccccc2)cc1 | -6%

Compound | displacement
O=Cc1cn(-c2ccccc2)nc1-c1cccc([N+](=O)[O-])c1 | 10.5%
Cc1nnc(Nc2ccc3c(c2)nc(C)n3C)c2ccccc12 | 4%
COc1ccc(N2C(=O)/C(=C/c3ccc(OC(=O)C45CC6CC(CC(C6)C4)C5)c(OC)c3)SC2=S)cc1 | -4.8%
OC(COc1ccc(Cl)cc1)CSc1ccccn1 (stereo unspecified) | -9.3%
CCOC(=O)c1cnn2c(C)c(C(C)=O)cnc12 | -6.7%
O=C(NC(=S)Nc1ncc(Br)cc1Br)c1cccs1 | 7.3%
Cc1cc(C)c2c(N)c(C#N)sc2n1 | -4.8%
CSc1ccc(/C=C(/NC(=O)c2ccccc2)C(=O)NCCCO)cc1 | 1.2%
O=C1NN(c2ccc(Br)cc2)C(=O)/C1=C\c1ccc(-c2cccc(C(=O)O)c2)o1 | 8.7%
O=C(Nc1nc(-c2ccc(Cl)s2)cs1)C(c1ccccc1)c1ccccc1 | -18.9%
CCOP(=O)(OCC)/C(=C(\NC(=O)c1ccccc1)C(=O)Nc1ccc(Cl)cn1)c1ccccc1 | -3.1%
COc1ccc2c(c1OC)C(=O)O[C@@H]2[C@H]1c2c(cc3c(c2OC)OCO3)CCN1C | -1.4%
CCOc1ccc(NC(=O)CC(C)=O)cc1 | -9.2%
O=C(N/N=C/c1ccc(O)cc1)c1cc2ccccc2cc1O | 10.4%
CCN(CC)CCOCCOCCN(CC)CC | 0.5%
CCOc1ccccc1OCCCCN1CCCC1 | -6.4%
Cc1cccc(OCC(=O)N/N=C/c2cc([N+](=O)[O-])cc(Br)c2O)c1 | 20.5%
COc1ccc(C(=O)N2CCN(Cc3ccccc3C)CC2)cc1OC | -1%
C=C1CC(C)OC(c2ccccc2O)C1 (stereo unspecified) | -4.4%

— PubChem BioAssay AID1240 (Sanford-Burnham Center for Chemical Genomics, 2008)
